# Experimental data: PubChem BioAssay AID624417 (National Center for Advancing Translational Sciences (NCATS), 2012)
# Hit rate of the full screen: of about 410,000 compounds, about 6,400 (1.6%) were called active. This list was built around the results that the source calls inconclusive (neither active nor inactive); the mix of calls is not that of the screen. Calls follow the shape of the dose curve; as a rule, active = well fitted inhibition curve with a large enough effect; inconclusive = small, poorly fitted or top-dose-only effect; inactive = no such curve, though single readings can be large or run the other way. No potency is given beside an inconclusive call; the fits are too rough.
# Biological target: Glucagon-like peptide 1 receptor (Homo sapiens) (UniProt P43220)
# Test: qHTS of GLP-1 Receptor Inverse Agonists (Inhibition Mode); also: nearly all actives have a fitted effect of over 55% in size
# Conditions: HEK293 GLP-1R CRE-luciferase, luminescence, 24 h, GLP-1R form is constitutively active; series mostly up to 38.3 µM
# In short: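 HEK293 cells stably co-expressing a cAMP-responsive luciferase reporter and constitutively active GLP-1R were seeded, incubated 12 h, then exposed to compounds for 24 h at 37 C. Luminescence was read 12 min after detection reagent; inverse agonists lower signal.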
# Potency is read from the fitted curve at half-maximal effect; tags tell the direction and shape of the fitted curve.
# Chain of UniProt P43220 (P43220 whole entry, looked up): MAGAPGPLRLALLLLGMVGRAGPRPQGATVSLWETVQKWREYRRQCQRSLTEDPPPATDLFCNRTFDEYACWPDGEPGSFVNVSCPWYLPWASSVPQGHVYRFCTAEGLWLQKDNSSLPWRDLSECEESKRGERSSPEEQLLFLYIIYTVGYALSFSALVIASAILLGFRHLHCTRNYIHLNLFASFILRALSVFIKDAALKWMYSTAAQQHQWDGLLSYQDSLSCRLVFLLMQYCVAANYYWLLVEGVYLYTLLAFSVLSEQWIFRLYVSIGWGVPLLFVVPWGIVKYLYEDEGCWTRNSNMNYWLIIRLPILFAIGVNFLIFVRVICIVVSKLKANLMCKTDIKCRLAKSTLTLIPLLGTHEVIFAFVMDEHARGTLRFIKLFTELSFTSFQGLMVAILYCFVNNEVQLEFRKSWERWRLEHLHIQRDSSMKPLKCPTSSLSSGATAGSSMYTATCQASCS
row,Structure (SMILES),Potency
1,Cc1ccccc1N/N=C/c1sc(=O)n(Cc2cccc(C(=O)O)c2)c1Cl,"inconclusive [inhibitor, partial curve, poor fit]"
2,Cc1cc(C)cc(-n2cccc2/C=C2/C(=N)N3C(=NC2=O)SN=C3S(C)(=O)=O)c1,"inconclusive [inhibitor, single point]"
3,COc1cc(/C=C2/C(=O)NN(c3ccc(Cl)cc3)C2=O)cc(Br)c1O,"inconclusive [inhibitor, full curve, poor fit]"
